# According to publication PMC8270969:
# Sequences of proteins named here, by UniProt entry; tags and fusion partners are left off. Residues count along the entry.
# UniProt P20702, residues 20-1163: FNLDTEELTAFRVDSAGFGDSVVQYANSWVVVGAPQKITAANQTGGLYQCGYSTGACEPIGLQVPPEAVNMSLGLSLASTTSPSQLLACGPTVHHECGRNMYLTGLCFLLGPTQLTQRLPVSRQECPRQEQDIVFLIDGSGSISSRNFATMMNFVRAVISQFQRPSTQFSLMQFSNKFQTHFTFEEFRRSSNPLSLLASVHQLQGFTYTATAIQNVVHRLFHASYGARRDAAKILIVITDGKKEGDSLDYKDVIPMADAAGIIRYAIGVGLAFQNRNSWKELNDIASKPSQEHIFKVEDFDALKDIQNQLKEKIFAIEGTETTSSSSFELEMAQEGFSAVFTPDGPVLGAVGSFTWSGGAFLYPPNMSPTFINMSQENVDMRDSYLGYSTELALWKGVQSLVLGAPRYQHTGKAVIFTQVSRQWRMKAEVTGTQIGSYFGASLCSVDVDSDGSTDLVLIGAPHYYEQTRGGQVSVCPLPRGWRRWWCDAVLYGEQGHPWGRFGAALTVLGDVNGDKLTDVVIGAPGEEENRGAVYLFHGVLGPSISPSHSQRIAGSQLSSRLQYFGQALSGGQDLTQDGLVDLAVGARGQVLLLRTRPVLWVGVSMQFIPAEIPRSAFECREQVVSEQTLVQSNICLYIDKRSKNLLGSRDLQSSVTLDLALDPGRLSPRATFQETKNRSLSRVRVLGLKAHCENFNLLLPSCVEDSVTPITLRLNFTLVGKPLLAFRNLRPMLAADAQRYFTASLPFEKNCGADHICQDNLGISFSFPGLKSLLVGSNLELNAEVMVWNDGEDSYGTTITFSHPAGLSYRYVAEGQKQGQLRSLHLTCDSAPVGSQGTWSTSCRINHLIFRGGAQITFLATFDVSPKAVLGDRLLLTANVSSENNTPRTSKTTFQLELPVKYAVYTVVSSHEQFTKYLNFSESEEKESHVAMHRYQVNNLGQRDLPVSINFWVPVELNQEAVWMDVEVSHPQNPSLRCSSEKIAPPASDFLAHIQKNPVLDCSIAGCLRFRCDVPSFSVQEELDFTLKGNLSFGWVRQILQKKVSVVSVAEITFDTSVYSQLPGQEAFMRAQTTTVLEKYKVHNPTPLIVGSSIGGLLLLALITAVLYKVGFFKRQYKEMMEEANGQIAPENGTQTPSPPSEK
# UniProt P02671, residues 36-866: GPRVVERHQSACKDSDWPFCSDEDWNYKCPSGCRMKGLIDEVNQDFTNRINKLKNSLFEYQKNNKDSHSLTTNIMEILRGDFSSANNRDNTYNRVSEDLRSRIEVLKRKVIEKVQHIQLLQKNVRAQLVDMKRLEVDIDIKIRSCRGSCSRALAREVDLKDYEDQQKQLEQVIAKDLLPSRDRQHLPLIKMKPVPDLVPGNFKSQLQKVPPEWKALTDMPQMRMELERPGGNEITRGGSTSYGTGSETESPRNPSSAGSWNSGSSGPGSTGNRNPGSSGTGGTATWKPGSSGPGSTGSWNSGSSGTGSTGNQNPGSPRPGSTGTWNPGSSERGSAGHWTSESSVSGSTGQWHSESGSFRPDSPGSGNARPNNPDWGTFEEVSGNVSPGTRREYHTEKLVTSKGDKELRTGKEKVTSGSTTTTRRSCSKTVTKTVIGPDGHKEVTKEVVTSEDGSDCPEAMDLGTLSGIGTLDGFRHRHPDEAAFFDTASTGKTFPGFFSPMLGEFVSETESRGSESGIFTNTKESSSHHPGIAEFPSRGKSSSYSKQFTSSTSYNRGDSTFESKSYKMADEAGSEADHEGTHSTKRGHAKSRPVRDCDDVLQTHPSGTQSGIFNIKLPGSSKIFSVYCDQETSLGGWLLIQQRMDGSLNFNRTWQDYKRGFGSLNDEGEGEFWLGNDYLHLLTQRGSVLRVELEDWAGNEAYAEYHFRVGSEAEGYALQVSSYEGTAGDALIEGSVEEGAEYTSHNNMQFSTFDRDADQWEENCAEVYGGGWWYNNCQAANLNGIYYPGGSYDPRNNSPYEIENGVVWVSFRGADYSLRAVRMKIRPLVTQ
# UniProt P02679, residues 27-453: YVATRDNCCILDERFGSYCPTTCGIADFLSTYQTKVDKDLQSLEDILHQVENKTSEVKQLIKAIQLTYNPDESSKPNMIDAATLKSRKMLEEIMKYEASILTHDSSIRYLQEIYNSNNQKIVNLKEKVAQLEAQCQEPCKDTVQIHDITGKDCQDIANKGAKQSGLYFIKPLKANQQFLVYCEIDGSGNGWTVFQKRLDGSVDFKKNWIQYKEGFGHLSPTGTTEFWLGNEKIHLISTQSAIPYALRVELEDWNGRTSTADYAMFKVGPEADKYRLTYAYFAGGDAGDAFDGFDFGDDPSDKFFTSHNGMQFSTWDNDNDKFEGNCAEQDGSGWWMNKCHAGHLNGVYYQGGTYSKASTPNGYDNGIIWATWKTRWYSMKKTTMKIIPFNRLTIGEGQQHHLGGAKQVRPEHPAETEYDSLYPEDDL
# UniProt P05362, residues 28-532: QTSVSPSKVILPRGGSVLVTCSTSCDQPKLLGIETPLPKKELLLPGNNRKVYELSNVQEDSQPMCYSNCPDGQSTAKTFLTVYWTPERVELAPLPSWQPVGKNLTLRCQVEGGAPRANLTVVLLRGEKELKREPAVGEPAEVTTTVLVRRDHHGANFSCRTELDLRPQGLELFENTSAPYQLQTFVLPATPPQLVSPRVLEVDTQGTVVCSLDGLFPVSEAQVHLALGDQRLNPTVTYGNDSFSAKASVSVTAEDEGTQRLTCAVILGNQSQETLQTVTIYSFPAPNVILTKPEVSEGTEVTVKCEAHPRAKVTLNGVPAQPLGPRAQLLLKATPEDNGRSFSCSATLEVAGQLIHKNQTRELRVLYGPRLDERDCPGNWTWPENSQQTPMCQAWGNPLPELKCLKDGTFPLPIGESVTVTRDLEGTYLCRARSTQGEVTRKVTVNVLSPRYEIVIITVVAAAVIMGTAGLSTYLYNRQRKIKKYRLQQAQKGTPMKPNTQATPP
# UniProt P05107, residues 23-769: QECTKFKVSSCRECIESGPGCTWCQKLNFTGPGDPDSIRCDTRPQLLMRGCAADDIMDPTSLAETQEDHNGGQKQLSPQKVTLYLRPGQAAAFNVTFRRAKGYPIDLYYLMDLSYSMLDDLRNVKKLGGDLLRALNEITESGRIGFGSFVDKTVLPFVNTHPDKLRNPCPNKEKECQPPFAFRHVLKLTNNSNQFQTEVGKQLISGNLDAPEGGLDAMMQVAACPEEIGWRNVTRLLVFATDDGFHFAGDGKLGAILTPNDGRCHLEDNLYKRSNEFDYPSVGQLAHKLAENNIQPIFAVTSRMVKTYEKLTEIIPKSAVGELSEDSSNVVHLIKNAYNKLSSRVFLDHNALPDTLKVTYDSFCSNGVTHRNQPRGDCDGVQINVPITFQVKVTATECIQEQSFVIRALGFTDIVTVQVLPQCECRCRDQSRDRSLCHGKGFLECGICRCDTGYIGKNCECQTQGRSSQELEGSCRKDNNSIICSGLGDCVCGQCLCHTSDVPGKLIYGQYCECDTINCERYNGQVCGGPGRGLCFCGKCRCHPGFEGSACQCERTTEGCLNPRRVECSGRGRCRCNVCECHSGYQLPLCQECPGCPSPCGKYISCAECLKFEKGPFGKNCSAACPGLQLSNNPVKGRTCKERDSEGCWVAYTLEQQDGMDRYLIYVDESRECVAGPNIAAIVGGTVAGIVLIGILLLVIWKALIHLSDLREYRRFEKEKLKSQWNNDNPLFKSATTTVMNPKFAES
# UniProt P35579: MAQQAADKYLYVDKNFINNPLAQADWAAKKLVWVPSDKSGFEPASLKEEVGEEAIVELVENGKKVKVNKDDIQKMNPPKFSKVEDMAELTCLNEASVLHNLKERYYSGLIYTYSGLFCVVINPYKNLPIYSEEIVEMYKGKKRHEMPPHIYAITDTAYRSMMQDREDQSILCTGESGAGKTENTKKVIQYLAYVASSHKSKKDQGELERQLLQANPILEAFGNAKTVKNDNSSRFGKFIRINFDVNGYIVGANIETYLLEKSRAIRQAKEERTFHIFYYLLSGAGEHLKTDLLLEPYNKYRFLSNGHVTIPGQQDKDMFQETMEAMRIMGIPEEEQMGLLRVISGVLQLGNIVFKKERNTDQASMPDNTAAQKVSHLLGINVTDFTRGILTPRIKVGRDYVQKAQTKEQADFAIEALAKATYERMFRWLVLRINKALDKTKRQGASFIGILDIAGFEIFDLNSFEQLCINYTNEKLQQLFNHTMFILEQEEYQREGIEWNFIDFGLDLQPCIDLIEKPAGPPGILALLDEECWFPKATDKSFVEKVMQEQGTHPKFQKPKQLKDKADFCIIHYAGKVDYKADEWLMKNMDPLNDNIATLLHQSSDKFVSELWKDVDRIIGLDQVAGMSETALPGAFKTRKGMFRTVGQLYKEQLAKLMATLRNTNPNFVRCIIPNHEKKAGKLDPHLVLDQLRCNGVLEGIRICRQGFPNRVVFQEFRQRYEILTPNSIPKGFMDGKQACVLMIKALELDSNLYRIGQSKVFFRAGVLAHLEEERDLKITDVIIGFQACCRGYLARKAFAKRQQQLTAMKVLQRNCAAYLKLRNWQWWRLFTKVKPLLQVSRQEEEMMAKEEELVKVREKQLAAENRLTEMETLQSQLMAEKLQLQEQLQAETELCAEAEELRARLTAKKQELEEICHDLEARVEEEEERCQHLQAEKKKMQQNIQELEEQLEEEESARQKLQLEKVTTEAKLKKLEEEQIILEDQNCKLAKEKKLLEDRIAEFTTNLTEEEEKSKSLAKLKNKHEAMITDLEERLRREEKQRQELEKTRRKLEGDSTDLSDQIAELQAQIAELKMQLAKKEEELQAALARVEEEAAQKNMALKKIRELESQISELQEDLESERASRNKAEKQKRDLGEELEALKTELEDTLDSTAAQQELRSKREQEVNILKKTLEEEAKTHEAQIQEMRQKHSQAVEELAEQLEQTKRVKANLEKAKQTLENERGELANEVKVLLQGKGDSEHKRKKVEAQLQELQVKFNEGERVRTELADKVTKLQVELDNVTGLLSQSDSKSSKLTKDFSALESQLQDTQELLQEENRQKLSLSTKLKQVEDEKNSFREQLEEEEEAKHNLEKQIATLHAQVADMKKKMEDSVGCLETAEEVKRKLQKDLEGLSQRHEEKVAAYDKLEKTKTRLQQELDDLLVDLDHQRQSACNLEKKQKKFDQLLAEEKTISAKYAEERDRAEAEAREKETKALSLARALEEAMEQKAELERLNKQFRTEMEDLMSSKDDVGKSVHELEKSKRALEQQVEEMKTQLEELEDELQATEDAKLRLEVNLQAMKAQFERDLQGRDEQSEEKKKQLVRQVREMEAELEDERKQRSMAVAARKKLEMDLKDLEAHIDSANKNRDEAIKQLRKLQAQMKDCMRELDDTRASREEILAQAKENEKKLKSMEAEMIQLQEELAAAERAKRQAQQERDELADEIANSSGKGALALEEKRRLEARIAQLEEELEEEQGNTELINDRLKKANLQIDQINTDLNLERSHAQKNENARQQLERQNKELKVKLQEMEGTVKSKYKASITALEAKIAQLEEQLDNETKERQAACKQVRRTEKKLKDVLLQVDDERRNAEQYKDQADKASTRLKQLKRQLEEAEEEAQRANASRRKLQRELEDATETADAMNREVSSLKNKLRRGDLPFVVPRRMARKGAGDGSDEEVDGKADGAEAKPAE
# No constants are given. Whether binding was seen depends on the method and setting. In cells and extracts the contact can be indirect. Some entries that bind do so weakly or less than the wild type. For some of these results: Tags and fused reporters may be left off the sequences shown.
# B1: CD90 (Thy-1) (ligand, UniProt P04216 20-130)
# chain: QKVTSLTACLVDQSLRLDCRHENTSSSPIQYEFSLTRETKKHVLFGTVGVPEHTYRSRTNFTSKYNMKVLYLSAFTSKDEGTYTCALHHSGHSPPISSQNVTVLRDKLVKC
# Tests used:
# [1] = biological target: integrin αX (human (endogenous in HeyA8)) (UniProt P20702); assay: co-IP; lysates of A8, A8i and A8i-A cells precipitated with antibodies against integrin αX or β2, WB for the ligands
# [2] = biological target: T1, HA-tagged ECM1a (extracellular matrix protein-1, secretory isoform a), wild type (human) (UniProt Q16610); assay: co-IP; 0.5-1.0 mg whole-cell lysate of A8i cells expressing HA-ECM1a, HA-ECM1b or HA-ECM1a-MT in RIPA lysis buffer, 2 ug antibody or normal IgG, detection by WB
# T1 sequence: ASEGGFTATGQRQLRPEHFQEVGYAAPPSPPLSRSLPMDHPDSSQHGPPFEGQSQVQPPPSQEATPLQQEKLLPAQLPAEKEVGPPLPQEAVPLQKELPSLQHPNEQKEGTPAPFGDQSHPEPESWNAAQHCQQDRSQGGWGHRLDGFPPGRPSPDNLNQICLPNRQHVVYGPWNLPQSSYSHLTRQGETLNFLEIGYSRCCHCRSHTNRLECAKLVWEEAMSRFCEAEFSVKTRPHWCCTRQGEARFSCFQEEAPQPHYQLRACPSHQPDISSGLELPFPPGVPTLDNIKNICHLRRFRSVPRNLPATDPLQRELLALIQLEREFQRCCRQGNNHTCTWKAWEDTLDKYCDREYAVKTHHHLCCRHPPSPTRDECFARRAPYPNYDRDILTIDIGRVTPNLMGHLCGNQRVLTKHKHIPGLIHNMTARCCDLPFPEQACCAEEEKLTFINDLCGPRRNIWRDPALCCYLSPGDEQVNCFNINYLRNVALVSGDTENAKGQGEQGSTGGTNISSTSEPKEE
# [3] = biological target: T2, HA-tagged ECM1b (extracellular matrix protein-1, non-secretory isoform b) (human) (UniProt Q16610); assay: as above
# T2 sequence: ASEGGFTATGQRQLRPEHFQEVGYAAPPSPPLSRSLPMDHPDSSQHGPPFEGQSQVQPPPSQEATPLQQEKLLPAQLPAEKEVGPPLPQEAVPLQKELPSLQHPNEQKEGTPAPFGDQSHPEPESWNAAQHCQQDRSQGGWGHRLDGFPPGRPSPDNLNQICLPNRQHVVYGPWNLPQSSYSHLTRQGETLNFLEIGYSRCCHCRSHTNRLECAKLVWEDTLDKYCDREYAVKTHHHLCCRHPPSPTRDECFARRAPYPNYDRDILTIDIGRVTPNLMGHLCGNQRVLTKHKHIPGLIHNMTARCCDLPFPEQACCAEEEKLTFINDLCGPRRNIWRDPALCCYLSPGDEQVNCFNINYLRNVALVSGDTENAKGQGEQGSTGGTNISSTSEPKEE
# [4] = biological target: T1, HA-tagged ECM1a (extracellular matrix protein-1, secretory isoform a), wild type (human); assay: co-IP; cell culture supernatants (conditioned medium) collected from HeyA8 cells overexpressing HA-ECM1a or HA-ECM1b
# [5] = biological target: fibrinogen α chain (human (endogenous in HeyA8)) (UniProt P02671); assay: co-IP; reverse co-IP: lysates of A8, A8i and A8i-A cells precipitated with antibodies against the ligands, WB for integrin αX or β2
# [6] = biological target: fibrinogen γ chain (human (endogenous in HeyA8)) (UniProt P02679); assay: as above
# [7] = biological target: T3, CD90 (Thy-1) (human (endogenous in HeyA8)) (UniProt P04216); assay: as above
# T3 sequence: B1 chain
# [8] = biological target: ICAM-1 (human (endogenous in HeyA8)) (UniProt P05362); assay: as above
# [9] = biological target: T1, HA-tagged ECM1a (extracellular matrix protein-1, secretory isoform a), wild type (human); assay: proximity ligation; Duolink In Situ Red kit on cells cultured on cover slides at 75% confluence; controls with mouse IgG or the control kit
# [10] = biological target: T2, HA-tagged ECM1b (extracellular matrix protein-1, non-secretory isoform b) (human); assay: as above
# [11] = biological target: T1, HA-tagged ECM1a (extracellular matrix protein-1, secretory isoform a), wild type (human); assay: co-IP; cell surface biotinylation (EZ-Link Sulfo-NHS-SS-Biotin, NeutrAvidin Agarose), isolated cell surface components precipitated with an HA antibody, WB for integrin αX or β2
# [12] = biological target: integrin β2 (human (endogenous in HeyA8)) (UniProt P05107); assay: co-IP; lysates of A8, A8i and A8i-A cells precipitated with antibodies against integrin αX or β2, WB for the ligands
molecule,measurement,setting,value
ICAM-1 (from UniProt P05362 28-532) (ligand),binding,[1],binds
fibrinogen α chain (from UniProt P02671 36-866) (ligand),binding,[1],binds
fibrinogen γ chain (from UniProt P02679 27-453) (ligand),binding,[1],binds
integrin αX (from UniProt P20702 20-1163) (receptor),binding,[2],binds
same,binding,[3],no binding
same,binding,[4],binds
same,binding,[5],binds
same,binding,[6],binds
same,binding,[7],binds
same,binding,[8],binds
same,binding,[9],binds
same,binding,[10],no binding
same,binding,[11],binds
integrin β2 (from UniProt P05107 23-769) (receptor),binding,[2],binds
same,binding,[3],no binding
same,binding,[4],binds
same,binding,[9],binds
same,binding,[10],no binding
same,binding,[11],binds
nonphosphorylated myosin IIa (from UniProt P35579 1-1960),binding,[2],no binding
B1,binding,[12],no binding
same,binding,[1],binds
